Source: paper PMC6249397
Read-outs that look alike come from different tables or passages of the source. No constants are given. Whether binding was seen depends on the method and setting. Binding seen in cells or lysates may run through a third protein. Some binding calls cover weakened binding; strength is not graded here. Sequences can lack the tags named with a protein.

The chains behind the UniProt entries cited, without tags or fusion partners.
UniProt Q10471: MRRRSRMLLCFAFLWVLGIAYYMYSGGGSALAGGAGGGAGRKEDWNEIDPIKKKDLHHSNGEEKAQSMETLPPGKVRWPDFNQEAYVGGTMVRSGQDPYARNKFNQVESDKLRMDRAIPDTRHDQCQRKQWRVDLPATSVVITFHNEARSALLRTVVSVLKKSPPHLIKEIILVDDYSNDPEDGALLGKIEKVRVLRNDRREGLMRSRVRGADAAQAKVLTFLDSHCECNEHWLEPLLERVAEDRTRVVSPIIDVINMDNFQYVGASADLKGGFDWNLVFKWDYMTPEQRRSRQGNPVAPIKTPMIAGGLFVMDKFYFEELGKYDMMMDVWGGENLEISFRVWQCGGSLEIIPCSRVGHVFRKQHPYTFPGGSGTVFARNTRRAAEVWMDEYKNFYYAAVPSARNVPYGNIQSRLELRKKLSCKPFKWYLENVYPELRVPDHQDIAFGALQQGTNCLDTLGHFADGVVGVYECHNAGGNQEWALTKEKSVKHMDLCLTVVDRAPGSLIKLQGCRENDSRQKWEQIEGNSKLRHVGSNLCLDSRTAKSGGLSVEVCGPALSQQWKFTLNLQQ
UniProt Q6ZNE5: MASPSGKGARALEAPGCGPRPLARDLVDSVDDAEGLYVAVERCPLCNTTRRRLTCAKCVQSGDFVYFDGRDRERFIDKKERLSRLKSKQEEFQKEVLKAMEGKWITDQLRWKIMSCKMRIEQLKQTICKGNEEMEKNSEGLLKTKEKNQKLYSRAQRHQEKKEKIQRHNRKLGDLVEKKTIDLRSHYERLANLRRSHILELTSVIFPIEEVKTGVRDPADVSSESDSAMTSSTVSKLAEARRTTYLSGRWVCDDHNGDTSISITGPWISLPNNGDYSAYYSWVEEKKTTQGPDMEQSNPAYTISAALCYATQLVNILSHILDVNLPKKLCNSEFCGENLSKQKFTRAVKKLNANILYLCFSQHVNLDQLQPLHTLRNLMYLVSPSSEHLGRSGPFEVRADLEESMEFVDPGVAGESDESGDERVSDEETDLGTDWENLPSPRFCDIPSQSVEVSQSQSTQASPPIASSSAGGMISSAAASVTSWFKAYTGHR

T1: Myc-tagged PAQR3 (UniProt Q6TCH7)
T1 sequence: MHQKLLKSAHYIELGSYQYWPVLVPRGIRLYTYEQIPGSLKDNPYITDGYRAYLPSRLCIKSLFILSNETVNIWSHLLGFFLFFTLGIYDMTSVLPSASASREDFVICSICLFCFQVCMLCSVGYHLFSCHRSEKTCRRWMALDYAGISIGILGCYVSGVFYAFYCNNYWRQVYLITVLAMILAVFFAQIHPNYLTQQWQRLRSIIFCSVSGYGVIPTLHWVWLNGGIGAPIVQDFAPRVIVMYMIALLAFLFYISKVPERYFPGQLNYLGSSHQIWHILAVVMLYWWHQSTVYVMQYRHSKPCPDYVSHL

T2: PAQR3 with deletion of N-terminal 1-70 amino acids (UniProt Q6TCH7)
T2 sequence: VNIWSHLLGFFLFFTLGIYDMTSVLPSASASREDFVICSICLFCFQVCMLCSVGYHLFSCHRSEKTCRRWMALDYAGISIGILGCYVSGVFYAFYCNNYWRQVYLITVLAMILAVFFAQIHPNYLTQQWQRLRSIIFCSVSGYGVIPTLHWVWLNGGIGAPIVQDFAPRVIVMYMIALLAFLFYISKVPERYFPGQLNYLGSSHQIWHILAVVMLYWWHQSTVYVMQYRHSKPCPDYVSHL

T3: GST-fused N-terminal end of PAQR3 (1-71 aa) (UniProt Q6TCH7)
T3 sequence: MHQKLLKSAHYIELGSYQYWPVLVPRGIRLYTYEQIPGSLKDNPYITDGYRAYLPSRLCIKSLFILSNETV


Assays:
Myc-tagged PAQR3 [1] = biological target: T1, Myc-tagged PAQR3; experiment: co-IP; HEK293T cells transiently co-transfected with both tagged partners; 24 hr after transfection the cell lysate was used in IP and IB with the antibodies as indicated
[2] = biological target: T2, PAQR3 with deletion of N-terminal 1-70 amino acids; experiment: as above
Myc-tagged PAQR3 [3] = biological target: T1, Myc-tagged PAQR3; experiment: as above; remark: listed apart in the source
[4] = biological target: T3, GST-fused N-terminal end of PAQR3 (1-71 aa); experiment: pull-down; GST pull-down with GST-fused PAQR3 (1-71 aa) or GST as bait (Figure S3); source of the preys not shown

| Molecule | binding (Myc-tagged PAQR3 [3]) | further results |
| --- | --- | --- |
| GFP-fused GalNAc-T2 (from UniProt Q10471 1-571) (enzyme) | – | binding (Myc-tagged PAQR3 [1]): no binding |
| GFP-fused ATG14L (from UniProt Q6ZNE5 1-492) | – | binding (Myc-tagged PAQR3 [1]): binds |
| FLAG-tagged Sec31A (protein, UniProt O94979 1-1220) MKLKEVDRTAMQAWSPAQNHPIYLATGTSAQQLDATFSTNASLEIFELDLSDPSLDMKSCATFSSSHRYHKLIWGPYKMDSKGDVSGVLIAGGENGNIILYDPSKIIAGDKEVVIAQNDKHTGPVRALDVNIFQTNLVASGANESEIYIWDLNNFATPMTPGAKTQPPEDISCIAWNRQVQHILASASPSGRATVWDLRKNEPIIKVSDHSNRMHCSGLAWHPDVATQMVLASEDDRLPVIQMWDLRFASSPLRVLENHARGILAIAWSMADPELLLSCGKDAKILCSNPNTGEVLYELPTNTQWCFDIQWCPRNPAVLSAASFDGRISVYSIMGGSTDGLRQKQVDKLSSSFGNLDPFGTGQPLPPLQIPQQTAQHSIVLPLKKPPKWIRRPVGASFSFGGKLVTFENVRMPSHQGAEQQQQQHHVFISQVVTEKEFLSRSDQLQQAVQSQGFINYCQKKIDASQTEFEKNVWSFLKVNFEDDSRGKYLELLGYRKEDLGKKIALALNKVDGANVALKDSDQVAQSDGEESPAAEEQLLGEHIKEEKEESEFLPSSGGTFNISVSGDIDGLITQALLTGNFESAVDLCLHDNRMADAIILAIAGGQELLARTQKKYFAKSQSKITRLITAVVMKNWKEIVESCDLKNWREALAAVLTYAKPDEFSALCDLLGTRLENEGDSLLQTQACLCYICAGNVEKLVACWTKAQDGSHPLSLQDLIEKVVILRKAVQLTQAMDTSTVGVLLAAKMSQYANLLAAQGSIAAALAFLPDNTNQPNIMQLRDRLCRAQGEPVAGHESPKIPYEKQQLPKGRPGPVAGHHQMPRVQTQQYYPHGENPPPPGFIMHGNVNPNAAGQLPTSPGHMHTQVPPYPQPQPYQPAQPYPFGTGGSAMYRPQQPVAPPTSNAYPNTPYISSASSYTGQSQLYAAQHQASSPTSSPATSFPPPPSSGASFQHGGPGAPPSSSAYALPPGTTGTLPAASELPASQRTGPQNGWNDPPALNRVPKKKKMPENFMPPVPITSPIMNPLGDPQSQMLQQQPSAPVPLSSQSSFPQPHLPGGQPFHGVQQPLGQTGMPPSFSKPNIEGAPGAPIGNTFQHVQSLPTKKITKKPIPDEHLILKTTFEDLIQRCLSSATDPQTKRKLDDASKRLEFLYDKLREQTLSPTITSGLHNIARSIETRNYSEGLTMHTHIVSTSNFSETSAFMPVLKVVLTQANKLGV | binds | binding [2]: no binding |
| Sec31A (prey of the GST pull-down) (protein, UniProt O94979 1-1220) MKLKEVDRTAMQAWSPAQNHPIYLATGTSAQQLDATFSTNASLEIFELDLSDPSLDMKSCATFSSSHRYHKLIWGPYKMDSKGDVSGVLIAGGENGNIILYDPSKIIAGDKEVVIAQNDKHTGPVRALDVNIFQTNLVASGANESEIYIWDLNNFATPMTPGAKTQPPEDISCIAWNRQVQHILASASPSGRATVWDLRKNEPIIKVSDHSNRMHCSGLAWHPDVATQMVLASEDDRLPVIQMWDLRFASSPLRVLENHARGILAIAWSMADPELLLSCGKDAKILCSNPNTGEVLYELPTNTQWCFDIQWCPRNPAVLSAASFDGRISVYSIMGGSTDGLRQKQVDKLSSSFGNLDPFGTGQPLPPLQIPQQTAQHSIVLPLKKPPKWIRRPVGASFSFGGKLVTFENVRMPSHQGAEQQQQQHHVFISQVVTEKEFLSRSDQLQQAVQSQGFINYCQKKIDASQTEFEKNVWSFLKVNFEDDSRGKYLELLGYRKEDLGKKIALALNKVDGANVALKDSDQVAQSDGEESPAAEEQLLGEHIKEEKEESEFLPSSGGTFNISVSGDIDGLITQALLTGNFESAVDLCLHDNRMADAIILAIAGGQELLARTQKKYFAKSQSKITRLITAVVMKNWKEIVESCDLKNWREALAAVLTYAKPDEFSALCDLLGTRLENEGDSLLQTQACLCYICAGNVEKLVACWTKAQDGSHPLSLQDLIEKVVILRKAVQLTQAMDTSTVGVLLAAKMSQYANLLAAQGSIAAALAFLPDNTNQPNIMQLRDRLCRAQGEPVAGHESPKIPYEKQQLPKGRPGPVAGHHQMPRVQTQQYYPHGENPPPPGFIMHGNVNPNAAGQLPTSPGHMHTQVPPYPQPQPYQPAQPYPFGTGGSAMYRPQQPVAPPTSNAYPNTPYISSASSYTGQSQLYAAQHQASSPTSSPATSFPPPPSSGASFQHGGPGAPPSSSAYALPPGTTGTLPAASELPASQRTGPQNGWNDPPALNRVPKKKKMPENFMPPVPITSPIMNPLGDPQSQMLQQQPSAPVPLSSQSSFPQPHLPGGQPFHGVQQPLGQTGMPPSFSKPNIEGAPGAPIGNTFQHVQSLPTKKITKKPIPDEHLILKTTFEDLIQRCLSSATDPQTKRKLDDASKRLEFLYDKLREQTLSPTITSGLHNIARSIETRNYSEGLTMHTHIVSTSNFSETSAFMPVLKVVLTQANKLGV | – | binding [4]: binds |
| SDVNKGQGSVSASVTEGQQNEQ (domain or fragment, UniProt P55735 301-322) [Sec13 C-terminal region (301-322 amino acids)] | no binding | – |

Now from value to molecule, other results behind:

| binding (Myc-tagged PAQR3 [3]) | Molecule | further results |
| --- | --- | --- |
| no binding | Sec31A intervening region (431-799 amino acids) (domain or fragment, UniProt O94979 431-799) QVVTEKEFLSRSDQLQQAVQSQGFINYCQKKIDASQTEFEKNVWSFLKVNFEDDSRGKYLELLGYRKEDLGKKIALALNKVDGANVALKDSDQVAQSDGEESPAAEEQLLGEHIKEEKEESEFLPSSGGTFNISVSGDIDGLITQALLTGNFESAVDLCLHDNRMADAIILAIAGGQELLARTQKKYFAKSQSKITRLITAVVMKNWKEIVESCDLKNWREALAAVLTYAKPDEFSALCDLLGTRLENEGDSLLQTQACLCYICAGNVEKLVACWTKAQDGSHPLSLQDLIEKVVILRKAVQLTQAMDTSTVGVLLAAKMSQYANLLAAQGSIAAALAFLPDNTNQPNIMQLRDRLCRAQGEPVAGHES | – |
| no binding | Sec31A C-terminal proline-rich region (800-1220 amino acids) (domain or fragment, UniProt O94979 800-1220) PKIPYEKQQLPKGRPGPVAGHHQMPRVQTQQYYPHGENPPPPGFIMHGNVNPNAAGQLPTSPGHMHTQVPPYPQPQPYQPAQPYPFGTGGSAMYRPQQPVAPPTSNAYPNTPYISSASSYTGQSQLYAAQHQASSPTSSPATSFPPPPSSGASFQHGGPGAPPSSSAYALPPGTTGTLPAASELPASQRTGPQNGWNDPPALNRVPKKKKMPENFMPPVPITSPIMNPLGDPQSQMLQQQPSAPVPLSSQSSFPQPHLPGGQPFHGVQQPLGQTGMPPSFSKPNIEGAPGAPIGNTFQHVQSLPTKKITKKPIPDEHLILKTTFEDLIQRCLSSATDPQTKRKLDDASKRLEFLYDKLREQTLSPTITSGLHNIARSIETRNYSEGLTMHTHIVSTSNFSETSAFMPVLKVVLTQANKLGV | – |
| binds | Sec31A N-terminal WD40 repeat domain (1-430 amino acids) (domain or fragment, UniProt O94979 1-430) MKLKEVDRTAMQAWSPAQNHPIYLATGTSAQQLDATFSTNASLEIFELDLSDPSLDMKSCATFSSSHRYHKLIWGPYKMDSKGDVSGVLIAGGENGNIILYDPSKIIAGDKEVVIAQNDKHTGPVRALDVNIFQTNLVASGANESEIYIWDLNNFATPMTPGAKTQPPEDISCIAWNRQVQHILASASPSGRATVWDLRKNEPIIKVSDHSNRMHCSGLAWHPDVATQMVLASEDDRLPVIQMWDLRFASSPLRVLENHARGILAIAWSMADPELLLSCGKDAKILCSNPNTGEVLYELPTNTQWCFDIQWCPRNPAVLSAASFDGRISVYSIMGGSTDGLRQKQVDKLSSSFGNLDPFGTGQPLPPLQIPQQTAQHSIVLPLKKPPKWIRRPVGASFSFGGKLVTFENVRMPSHQGAEQQQQQHHVFIS | – |
| binds | Sec13 N-terminal WD40 repeat domain (1-302 amino acids) (domain or fragment, UniProt P55735 1-302) MVSVINTVDTSHEDMIHDAQMDYYGTRLATCSSDRSVKIFDVRNGGQILIADLRGHEGPVWQVAWAHPMYGNILASCSYDRKVIIWREENGTWEKSHEHAGHDSSVNSVCWAPHDYGLILACGSSDGAISLLTYTGEGQWEVKKINNAHTIGCNAVSWAPAVVPGSLIDHPSGQKPNYIKRFASGGCDNLIKLWKEEEDGQWKEEQKLEAHSDWVRDVAWAPSIGLPTSTIASCSQDGRVFIWTCDDASSNTWSPKLLHKFNDVVWHVSWSITANILAVSGGDNKVTLWKESVDGQWVCISD | – |
